For four molecules, binding results are on record in PMC6400411.

Protein sequences, listed by entry. Tags and fused reporters are not part of them.
UniProt Q15172: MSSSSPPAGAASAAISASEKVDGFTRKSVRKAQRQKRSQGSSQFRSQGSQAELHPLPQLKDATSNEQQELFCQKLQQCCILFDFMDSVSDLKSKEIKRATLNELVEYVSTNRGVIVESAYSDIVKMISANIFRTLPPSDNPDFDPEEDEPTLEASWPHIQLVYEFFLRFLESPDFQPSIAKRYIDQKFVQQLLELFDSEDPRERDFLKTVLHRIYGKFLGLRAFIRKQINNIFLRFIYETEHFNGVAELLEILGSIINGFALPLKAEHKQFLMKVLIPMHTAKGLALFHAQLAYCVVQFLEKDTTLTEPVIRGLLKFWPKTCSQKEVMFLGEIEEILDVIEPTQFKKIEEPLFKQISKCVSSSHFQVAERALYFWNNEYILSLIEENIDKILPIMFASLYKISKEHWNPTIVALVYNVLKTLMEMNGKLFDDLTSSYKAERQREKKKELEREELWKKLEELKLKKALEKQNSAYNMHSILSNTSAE
UniProt Q969H0: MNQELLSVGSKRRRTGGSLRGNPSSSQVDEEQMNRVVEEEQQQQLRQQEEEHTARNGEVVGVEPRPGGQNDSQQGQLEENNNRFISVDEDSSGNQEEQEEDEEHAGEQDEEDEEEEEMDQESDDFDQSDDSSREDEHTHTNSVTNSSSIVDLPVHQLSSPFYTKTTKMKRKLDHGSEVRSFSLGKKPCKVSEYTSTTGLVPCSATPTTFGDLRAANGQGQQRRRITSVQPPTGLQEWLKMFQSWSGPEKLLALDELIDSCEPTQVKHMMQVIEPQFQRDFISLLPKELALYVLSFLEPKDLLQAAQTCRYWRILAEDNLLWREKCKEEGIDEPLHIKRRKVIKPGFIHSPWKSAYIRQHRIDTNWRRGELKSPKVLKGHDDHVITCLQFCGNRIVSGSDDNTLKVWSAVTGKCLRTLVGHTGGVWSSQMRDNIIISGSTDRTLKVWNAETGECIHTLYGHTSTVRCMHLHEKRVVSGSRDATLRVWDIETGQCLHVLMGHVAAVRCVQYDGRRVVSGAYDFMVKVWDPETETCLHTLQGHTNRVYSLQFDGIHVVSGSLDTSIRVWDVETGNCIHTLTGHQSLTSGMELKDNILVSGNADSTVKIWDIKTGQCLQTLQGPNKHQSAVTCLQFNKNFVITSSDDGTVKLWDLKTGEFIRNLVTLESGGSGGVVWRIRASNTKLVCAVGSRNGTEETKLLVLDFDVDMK
UniProt P49841: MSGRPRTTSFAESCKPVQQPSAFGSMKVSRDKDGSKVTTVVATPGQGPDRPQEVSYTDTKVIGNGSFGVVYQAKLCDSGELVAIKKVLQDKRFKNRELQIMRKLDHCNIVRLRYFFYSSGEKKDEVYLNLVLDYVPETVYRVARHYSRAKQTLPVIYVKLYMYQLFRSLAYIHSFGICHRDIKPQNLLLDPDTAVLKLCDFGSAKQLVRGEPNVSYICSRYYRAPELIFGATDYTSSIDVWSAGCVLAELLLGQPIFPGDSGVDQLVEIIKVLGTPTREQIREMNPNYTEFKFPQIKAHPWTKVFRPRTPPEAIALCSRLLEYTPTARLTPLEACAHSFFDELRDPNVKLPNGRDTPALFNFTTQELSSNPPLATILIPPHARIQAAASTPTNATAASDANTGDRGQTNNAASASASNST

Where a chain is given by its changes, count along the chain named. Where two headings read alike, the source gives them in different places. These are yes or no findings as the source states them, for the method shown. In cells and extracts the contact can be indirect. Some results given as binding are weak or reduced against the parent protein; the word gives no strength. Tags and fused reporters may be left off the sequences shown.

Assay [1] has as its target T1, Flag-FAAP20 WLR (W40A, L44Q, R45A) (293T cells) (UniProt Q6NZ36).
T1 sequence: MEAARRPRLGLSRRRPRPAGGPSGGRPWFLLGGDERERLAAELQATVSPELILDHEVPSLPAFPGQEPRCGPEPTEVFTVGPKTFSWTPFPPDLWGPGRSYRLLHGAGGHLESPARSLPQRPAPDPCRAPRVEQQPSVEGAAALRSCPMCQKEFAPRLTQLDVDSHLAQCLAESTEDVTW
The assay is described as follows: co-IP; 293T cells transiently transfected, lysed in NETN150 (1% NP40, 150 mM NaCl, 0.1 mM EDTA, 50 mM Tris pH 7.5) with protease and phosphatase inhibitors; anti-Flag M2 affinity gel 4 h, five washes; WB of HA-tagged or endogenous partner.

Assay [2] deals with T2, Flag-FAAP20 WT (293T cells) (UniProt Q6NZ36).
T2 sequence: T1 sequence with A40W, Q44L, A45R
The assay is described as above.

The target in assay [3] is T3, myc-FAAP20 WT (UniProt Q6NZ36).
T3 sequence: T1 sequence with A40W, Q44L, A45R
The assay is described as follows: co-IP; 293T cells transiently transfected, lysed in NETN150; anti-c-Myc agarose affinity gel 4 h, five washes; anti-HA WB; where indicated co-expression of PIN1, 50 nM okadaic acid and 10 μM MG132 for 6 h.

Assay [4] addresses T4, myc-FAAP20 P49A (UniProt Q6NZ36).
T4 sequence: T1 sequence with A40W, Q44L, A45R, P49A
The assay is described as above.

Assay [5] addresses T1, Flag-FAAP20 WLR (W40A, L44Q, R45A) (293T cells). The assay is described as follows: co-IP; 293T cells transiently transfected, lysed in NETN150 (1% NP40, 150 mM NaCl, 0.1 mM EDTA, 50 mM Tris pH 7.5) with protease and phosphatase inhibitors; anti-Flag M2 affinity gel 4 h, five washes; WB of HA-tagged or endogenous partner. This is another data set of the same source.
Assay [6] addresses T5, Flag-FAAP20 P49A (293T cells) (UniProt Q6NZ36).
T5 sequence: T1 sequence with A40W, Q44L, A45R, P49A
Described as above.

Assay [7] has as its target T2, Flag-FAAP20 WT (293T cells). Described as above. The source holds these as a separate data set.
Assay [8] addresses T6, Flag-FAAP20 S48A (293T cells) (UniProt Q6NZ36).
T6 sequence: T1 sequence with A40W, Q44L, A45R, S48A
Described as above.

In assay [9] the target is T7, Flag-FAAP20 ΔN30 (a.a.1-30 deletion) (UniProt Q6NZ36).
T7 sequence: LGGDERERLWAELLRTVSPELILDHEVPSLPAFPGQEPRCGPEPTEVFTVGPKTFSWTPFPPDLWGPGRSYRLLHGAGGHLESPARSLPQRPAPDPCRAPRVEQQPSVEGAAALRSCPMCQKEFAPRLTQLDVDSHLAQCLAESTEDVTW
Described as above.

On to HA-B56α (from UniProt Q15172 1-486), for which the binding result in [1] and in assay [2] was “binds” throughout.
As for HA-FBW7 (from UniProt Q969H0 1-707), the binding result in assay [3] and in [4] was “binds” each time.
In the case of “HA-GSKβ (from UniProt P49841 1-420) (enzyme)”, the binding entry in [1] and in assay [2] was “binds” in each case.

B1: endogenous FANCA (protein, UniProt O15360 1-1455)
chain: MSDSWVPNSASGQDPGGRRRAWAELLAGRVKREKYNPERAQKLKESAVRLLRSHQDLNALLLEVEGPLCKKLSLSKVIDCDSSEAYANHSSSFIGSALQDQASRLGVPVGILSAGMVASSVGQICTAPAETSHPVLLTVEQRKKLSSLLEFAQYLLAHSMFSRLSFCQELWKIQSSLLLEAVWHLHVQGIVSLQELLESHPDMHAVGSWLFRNLCCLCEQMEASCQHADVARAMLSDFVQMFVLRGFQKNSDLRRTVEPEKMPQVTVDVLQRMLIFALDALAAGVQEESSTHKIVRCWFGVFSGHTLGSVISTDPLKRFFSHTLTQILTHSPVLKASDAVQMQREWSFARTHPLLTSLYRRLFVMLSAEELVGHLQEVLETQEVHWQRVLSFVSALVVCFPEAQQLLEDWVARLMAQAFESCQLDSMVTAFLVVRQAALEGPSAFLSYADWFKASFGSTRGYHGCSKKALVFLFTFLSELVPFESPRYLQVHILHPPLVPGKYRSLLTDYISLAKTRLADLKVSIENMGLYEDLSSAGDITEPHSQALQDVEKAIMVFEHTGNIPVTVMEASIFRRPYYVSHFLPALLTPRVLPKVPDSRVAFIESLKRADKIPPSLYSTYCQACSAAEEKPEDAALGVRAEPNSAEEPLGQLTAALGELRASMTDPSQRDVISAQVAVISERLRAVLGHNEDDSSVEISKIQLSINTPRLEPREHMAVDLLLTSFCQNLMAASSVAPPERQGPWAALFVRTMCGRVLPAVLTRLCQLLRHQGPSLSAPHVLGLAALAVHLGESRSALPEVDVGPPAPGAGLPVPALFDSLLTCRTRDSLFFCLKFCTAAISYSLCKFSSQSRDTLCSCLSPGLIKKFQFLMFRLFSEARQPLSEEDVASLSWRPLHLPSADWQRAALSLWTHRTFREVLKEEDVHLTYQDWLHLELEIQPEADALSDTERQDFHQWAIHEHFLPESSASGGCDGDLQAACTILVNALMDFHQSSRSYDHSENSDLVFGGRTGNEDIISRLQEMVADLELQQDLIVPLGHTPSQEHFLFEIFRRRLQALTSGWSVAASLQRQRELLMYKRILLRLPSSVLCGSSFQAEQPITARCEQFFHLVNSEMRNFCSHGGALTQDITAHFFRGLLNACLRSRDPSLMVDFILAKCQTKCPLILTSALVWWPSLEPVLLCRWRRHCQSPLPRELQKLQEGRQFASDFLSPEAASPAPNPDWLSAAALHFAIQQVREENIRKQLKKLDCEREELLVFLFFFSLMGLLSSHLTSNSTTDLPKAFHVCAAILECLEKRKISWLALFQLTESDLRLGRLLLRVAPDQHTRLLPFAFYSLLSYFHEDAAIREEAFLHVAVDMYLKLVQLFVAGDTSTVSPPAGRSLELKGQGNPVELITKARLFLLQLIPRCPKKSFSHVAELLADRGDCDPEVSAALQSRQQAAPDADLSQEPHLF
In the case of B1, the binding result is given as “no binding” in [5]; “binds” in assay [6]; “binds” in assay [7]; “binds” in assay [8]; “binds” in assay [9].
